The full ranking holds about 110,000 compounds; the median of “z-score” is about -0.1, and the highest 2% start at about 2. The list shows a part of the results.
Target: Metabotropic glutamate receptor 8 (Rattus norvegicus) (UniProt P70579)
Assay: mGluR8 Gi/Go-coupled signaling modulation – cell-based, rat, thallium flux, HTS, primary screen (AID 488969)
Details: HEK293 rat mGluR8, GIRK (G protein-gated inwardly rectifying potassium channel) thallium flux, FluoZin2; at 10 µM; stronger effect = higher value; submaximal glutamate (EC20) added with thallium

UniProt P70579, sequence (P70579 whole entry, looked up): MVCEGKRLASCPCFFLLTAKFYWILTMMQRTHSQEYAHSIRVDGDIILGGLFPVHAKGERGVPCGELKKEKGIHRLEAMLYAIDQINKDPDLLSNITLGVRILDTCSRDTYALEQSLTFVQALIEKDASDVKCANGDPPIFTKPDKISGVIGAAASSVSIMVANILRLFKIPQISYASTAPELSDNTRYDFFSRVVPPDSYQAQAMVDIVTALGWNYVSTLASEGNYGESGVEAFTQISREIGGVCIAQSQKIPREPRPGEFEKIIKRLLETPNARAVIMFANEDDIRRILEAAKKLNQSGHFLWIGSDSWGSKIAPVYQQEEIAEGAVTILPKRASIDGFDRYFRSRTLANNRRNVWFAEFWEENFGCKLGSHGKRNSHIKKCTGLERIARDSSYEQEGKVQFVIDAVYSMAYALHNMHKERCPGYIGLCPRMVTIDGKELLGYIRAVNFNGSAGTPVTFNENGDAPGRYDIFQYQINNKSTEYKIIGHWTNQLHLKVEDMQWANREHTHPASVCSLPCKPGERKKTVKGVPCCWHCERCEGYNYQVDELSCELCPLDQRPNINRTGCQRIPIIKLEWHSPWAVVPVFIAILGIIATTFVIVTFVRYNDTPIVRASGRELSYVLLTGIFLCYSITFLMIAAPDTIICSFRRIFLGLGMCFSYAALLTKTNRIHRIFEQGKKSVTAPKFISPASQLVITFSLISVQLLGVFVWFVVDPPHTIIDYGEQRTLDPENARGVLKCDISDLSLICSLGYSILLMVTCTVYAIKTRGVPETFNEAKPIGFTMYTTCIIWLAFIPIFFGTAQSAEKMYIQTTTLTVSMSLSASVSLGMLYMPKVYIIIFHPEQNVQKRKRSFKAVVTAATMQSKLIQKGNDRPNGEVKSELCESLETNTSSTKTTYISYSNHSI

Row | Compound | z-score
1 | O=C(C1CC1)N1CCC(c2nc(-c3ccc(S(=O)(=O)NCC4CCCO4)cc3)no2)CC1 (centres undefined) | 1
2 | COc1ccccc1OCC(=O)Nc1ccc(S(=O)(=O)Nc2nc(C)cc(C)n2)cc1 | 0.305
3 | COc1ccc(CSc2nc(N3CCOCC3)c3c(c2C#N)CC(C)(C)OC3)cc1 | -0.283
4 | COc1ccc(Cl)cc1NC(=O)CCCN1C(=O)CCC1=O | 0.187
5 | COc1ccc(OC)c(-n2nnnc2SCC(=O)NCc2ccc3c(c2)OCO3)c1 | 0.833
6 | Cc1ccccc1N1CCN(C(=O)c2ccc(Oc3ccc(C(F)(F)F)cn3)cc2)CC1 | -0.869
7 | CCS(=O)(=O)N1CCN(C(=O)c2ccccc2)CC1 | -0.177
8 | COc1cc2c(cc1OC)C(C(=O)Nc1ccccn1)C(c1cccnc1)N(C)C2=O (centres undefined) | -1.51
9 | CCc1nnc(NC(=O)CSc2nnc(C)n2CC2CCCO2)s1 (centres undefined) | 0.247
10 | O=C(Nc1ccc(N2CCOCC2)cc1N1CCOCC1)c1ccco1 | -0.133
11 | Cc1cc2c(cc1C)CSC(c1ccccc1OC(=O)C(C)(C)C)SC2 | -0.288
12 | Cc1ccc(C(=O)NCCn2cc(SCC(=O)Nc3nnc(C)s3)c3ccccc32)cc1 | -0.392
13 | O=C(Nc1cccc(-c2nc3ccccc3[nH]2)c1)c1ccco1 | -0.153
14 | CCc1nn2cc(C(=O)c3cc(C)ccc3O)cnc2c1-c1ccc(F)cc1 | -0.233
15 | c1ccc(C[n+]2c(-c3ccccc3)csc2Nc2ccccc2)cc1 | 0.0215
16 | COc1ccc(NC(=O)CSc2nnc(CNC(=O)COc3ccc(Cl)cc3)o2)c(OC)c1 | 0.364
17 | CCCCOc1ccc(-c2csc(N)n2)cc1[N+](=O)[O-] | 0.438
18 | Fc1ccccc1/C=N/n1cnnc1 | -0.117
19 | CCOC(=O)/C(C#N)=C/c1ccc(OCC(=O)Nc2ccc(C)c(C)c2)c(OC)c1 | 0.0303
20 | CCCCC(NS(=O)(=O)c1ccc(C)cc1)C(=O)Oc1ccc2c3c(c(=O)oc2c1)CCC3 (centres undefined) | -0.0734
21 | COc1ccc2c(c1)sc(N)[n+]2Cc1cc(C)cc2cccnc12 | 0.488
22 | CC(=O)N=C1SC2CS(=O)(=O)CC2N1c1ccc(-c2nc3ccc(C)cc3s2)cc1 (centres undefined) | 0.0589
23 | CCOc1cc(C)c(C(C)C)cc1S(=O)(=O)N1CC(C)OC(C)C1 (centres undefined) | 0.134

Row | Compound | z-score
24 | Cc1ccc(S(=O)(=O)/C(C#N)=C/c2c[nH]c3ccccc23)cc1 | -0.538
25 | COc1ccccc1C(=O)Nc1ccc(N2CCCCC2)cc1 | -0.274
26 | COc1ccc(NC(=S)N/N=C2\CC(C)(C)Oc3ccc(O)cc32)cc1 | 1.79
27 | CCOC(=O)C1CCN(S(=O)(=O)c2ccc3c4c(cccc24)C(=O)N3)CC1 | 0.103
28 | CCOC(=O)c1cc(CC)sc1NC(=O)COC | -2.4
29 | Cc1nc(NC(=O)CSc2nnc(-c3ccccc3)c(-c3ccccc3)n2)c(Cl)cc1Cl | -0.0779
30 | CCCC1CC(=O)OC1(C)C(=O)CSc1n[nH]c(-c2ccccc2)n1 (centres undefined) | -1.1
31 | Cc1ccc(C(=O)O/N=C\c2ccc(N3CCCCC3)c([N+](=O)[O-])c2)cc1 | 0.106
32 | COc1ccc(Cl)cc1-c1n[nH]c(=S)n1C1CCCCC1 | 1.13
33 | COc1cccc(OCc2nc3ccccc3c(=O)n2N)c1 | 0.478
34 | Cn1cc(S(=O)(=O)Nc2cccc(F)c2)c(=O)n(C)c1=O | 0.175
35 | CC(C)(C)NC(=O)c1cccc(NC(=O)CSc2ccccc2)c1 | -0.313
36 | CC(=O)NS(=O)(=O)c1ccc(N=c2ssc3c2-c2ccc(C)cc2NC3(C)C)cc1 | 0.411
37 | O=C(/C=C/c1c[nH]c2ccccc12)c1cccc2ccccc12 | -0.225
38 | Cc1nc2c([nH]c3ccc(Br)cc32)s1 | -0.064
39 | COc1ccc(Cl)cc1NC(=O)N1CCN(CCc2ccccc2)CC1 | -1.75
40 | Cc1ccc(C)c(Sc2ccc(NC(=O)CCl)cc2)c1 | 0.743
41 | N#C/C(=C\c1c(N2CCC(C(N)=O)CC2)nc2ccccn2c1=O)C(=O)NCc1ccco1 | -0.0915
42 | COC(=O)c1ccc(NC(=S)N2CCC(C(N)=O)CC2)cc1 | -0.143
43 | CCC1CCCCN1c1nc2c(C=O)c(C)nn2c2ccccc12 (centres undefined) | -0.289
44 | Clc1ccc(-n2ncc3c(NCc4cccs4)ncnc32)cc1 | -0.31
45 | COc1ccc(CNC(=O)COC(=O)CCOc2ccccc2)cc1 | -0.373
46 | O=C(N/N=C\c1ccc(-c2ccc([N+](=O)[O-])cc2)o1)C1COc2ccccc2O1 (centres undefined) | -0.262

Row | Compound | z-score
47 | Cc1cc(OCC(=O)Nn2cnnc2)c(C)cc1Br | 0.279
48 | O=C1CCCC2=C1C(c1cccs1)Nc1ccccc1N2 (centres undefined) | -0.235
49 | CCOc1ccc(NC(=O)c2cccs2)c([N+](=O)[O-])c1 | -0.331
50 | CS(=O)(=O)Nc1cccc(C(=O)CC2(O)C(=O)Nc3ccc(Br)cc32)c1 (centres undefined) | -0.938
51 | COCCCn1nnnc1SCC(=O)Nc1nc(C)c(C)s1 | 0.0827
52 | O=C(CSCCc1ccccn1)Nc1cccnc1 | -0.27
53 | Cc1ccccc1Cn1cc(NC(=O)COc2ccccc2)cn1 | -0.325
54 | CCN1CCN(C(c2cccs2)C(C)NS(=O)(=O)c2ccc(Br)cc2)CC1 (centres undefined) | -0.233
55 | O=C(NCCC1=CCCCC1)c1ccc(Cl)c(S(=O)(=O)Nc2ccccc2)c1 | -0.0923
56 | O=C(NNC(=O)c1ccco1)c1ccccc1 | -0.181
57 | O=C(Nc1nnc(SCC(=O)N2CCCCC2)s1)c1cccs1 | 0.0108
58 | CC(C)Cn1c(-c2cccs2)nc2nc3ccccc3nc21 | -0.713
59 | CC1CCc2c(sc3nc(CSc4n[nH]c(N)n4)[nH]c(=O)c23)C1 (centres undefined) | -0.252
60 | Cc1cc(NC(=O)Nc2ccc(F)c(Cl)c2)no1 | -0.2
61 | O=C(Cn1nc(-c2cccc([N+](=O)[O-])c2)c2ccccc2c1=O)Nc1cccnc1 | 1.49
62 | N#Cc1c(-c2ccccc2)nc(N2CCCCCC2)[nH]c1=O | 0.0595
63 | Clc1ccc(Oc2nc(N3CCOCC3)nc(N3CCOCC3)n2)c(C2CCCCC2)c1 | -0.219
64 | CN(CC(=O)Nc1ccncc1)S(=O)(=O)c1ccc(Br)cc1 | -0.284
65 | O=C(CCSc1ccc(F)cc1)Nc1ccc(-n2cnnn2)cc1 | -0.733
66 | COc1cc2c3nnc(-c4ccc(F)cc4)c-3cn(Cc3ccc(F)cc3)c2cc1OC | 0.162
67 | O=C(CSc1nnc(Nc2ccccc2)s1)Nc1ccc(S(=O)(=O)N2CCOCC2)cc1 | -0.14
68 | C=CCn1c(C(C)NC(=O)CC)nc2ccccc21 (centres undefined) | 0.484
69 | Cc1ccc2cc(CN(Cc3ccccc3)Cc3nnnn3C3CCCC3)c(=O)[nH]c2c1 | -0.46

— PubChem BioAssay AID488969 (Vanderbilt High Throughput Screening Facility, 2010)
